Measured values: the supplement of paper PMC3334620
Whole data set: some 33,000 sequences, median “E-score (-0.5 to 0.5)” near -0.013, cut for the highest 2% near 0.3. This is one part of the list.

These sequences were tested against T1, Msn1 (UniProt P22148) (assay: PBM E-score (8-mer binding enrichment) (E-score (-0.5 to 0.5)); higher = stronger / more preferred TF binding; most listed sequences are background and not binding sites). Details: protein concentration: 200 nM; construct: GST-full length.
T1 sequence: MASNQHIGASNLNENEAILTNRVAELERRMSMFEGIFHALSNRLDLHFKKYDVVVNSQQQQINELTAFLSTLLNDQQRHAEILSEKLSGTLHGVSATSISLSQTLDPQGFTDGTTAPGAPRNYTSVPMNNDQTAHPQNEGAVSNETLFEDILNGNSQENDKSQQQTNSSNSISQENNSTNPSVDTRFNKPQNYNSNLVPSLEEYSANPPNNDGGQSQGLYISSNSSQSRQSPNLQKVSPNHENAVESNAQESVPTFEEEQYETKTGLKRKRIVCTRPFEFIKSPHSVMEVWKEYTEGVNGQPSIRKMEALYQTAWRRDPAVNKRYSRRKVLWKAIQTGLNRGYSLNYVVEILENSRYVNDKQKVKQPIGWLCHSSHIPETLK
Summary of the method: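 For each ungapped eight-base word taken together with its reverse complement, the Universal PBM Analysis Suite assigned an E-score. Binding data came from GST-tagged yeast transcription factors, applied at about 100-200 nM, on universal all-10-mer Agilent arrays made double-stranded by primer extension. Fluorescent anti-GST marked bound protein, and scans were normalised with masliner.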

Point of comparison: CCGCGAAA, “PBM E-score” value 0.0408. Against it:
- AATAAAAT — higher, 0.278
- ATCTCCAC — lower, -0.0667
- ATGCAATA — lower, 0.0215
- TCACTTCA — lower, -0.0878
- GCAACAAC — lower, 0.0348
- CGAAATAA — higher, 0.177
- ACAACCAA — higher, 0.219
- GAGCATAC — lower, 0.0391
- AAAGCTTA — higher, 0.121
- AGTCCCAC — higher, 0.0898
- CGAATTCC — higher, 0.142
- GGATTGAC — higher, 0.0636
- CAAAGCTA — higher, 0.108
- ACGCCAAA — lower, -0.131
- AGCCGTGC — lower, -0.0809
- ACTTAATA — higher, 0.0595
- AGAATCGC — higher, 0.0421
- CACTATGC — lower, -0.0454
- ATGCGGAA — higher, 0.0463
- CCACACGG — lower, -0.0693
- GTCGTACA — higher, 0.274
- GAGATTTA — lower, -0.0103
- CGGCACAG — lower, -0.0667
- AACACTAC — lower, 0.00687
- TTCACCAA — lower, -0.0507
- GTCCAGGA — higher, 0.257
- GCATTTCC — higher, 0.0637
- AATCACGG — higher, 0.084
- GATCTTCC — lower, -0.00404
- AGTATCAC — lower, -0.0502
- GACGATAA — higher, 0.127
- AGCGGCAT — higher, 0.175
- AAATTTAT — higher, 0.207
- CCGACTAG — lower, -0.166
- CTTAATGA — higher, 0.0864
- ATCGATGC — higher, 0.041
- CCCGTCAC — lower, -0.168
- ATGAGGAG — lower, -0.305
- AGAAGCCA — lower, -0.131
- CCGCAGAG — lower, -0.255
- AACACGAG — higher, 0.0599
- ACACAAAT — higher, 0.197
- AAGCATGG — lower, -0.177
- AGCTAACC — lower, -0.22
- ACTGATAT — lower, 0.0204
- ATTGCATA — higher, 0.115
- ATGATGCA — higher, 0.136
- CGATAACA — lower, -0.0279
- CGCTACCC — lower, -0.239
- CAACACTG — lower, -0.0259
- CGTTCAGA — lower, -0.137
- CGGCGATA — higher, 0.0816
- AGTACAAA — higher, 0.44
- AAACTGCC — higher, 0.0429
- ACATGTAG — higher, 0.244
- GCCTGGAA — lower, -0.0683
- ACACGCGG — lower, -0.005
- GCTACACC — lower, -0.162
- ATATAGCA — lower, 0.0324
- CAAACCAA — higher, 0.254
- ATCGTTGG — higher, 0.114
- AAGTATCA — higher, 0.128
- ACCTGAGG — lower, -0.217
- GCGATAGA — lower, -0.0828
- AAGATTAC — lower, -0.0469
- GATCGGAC — higher, 0.29
- GTTACCCA — lower, -0.047
- ATATGCAC — lower, -0.0123
- AGGTGGTC — lower, -0.244
- ATGAATCA — lower, 0.0376
- GACAAGTC — higher, 0.419
- ATAACGGG — lower, -0.0346
- TTGATAAA — higher, 0.128
- CCGTATCA — lower, -0.00449
- CTCTTCCA — lower, -0.154
- ACATTATA — higher, 0.15
- GCTAATAC — lower, 0.00888
- CACGGGGA — lower, -0.217
- ATTACAAG — higher, 0.0613
- GTGGCCTA — lower, -0.117
- CCCTTTCA — lower, -0.231
- CAGCGAAA — higher, 0.0465
- ATTAAGGC — higher, 0.066
- CACTTTAC — lower, -0.0285
- AGGACGCC — lower, -0.178
